In all, about 48,000 compounds went through this assay and about 550 (1.1%) were called active. Another 4% or so got no clear call; they are omitted. No stated cut-off is given here; in the data, active means potency below about 15 µM; inconclusive means mostly about 16 µM to 33 µM; inactive means weaker than that. The list shows a part of the results.
Molecular target: Lysosomal acid glucosylceramidase (Homo sapiens) (UniProt P04062)
Assay: Glucocerebrosidase;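 further: the screen sought inhibitors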
Details: purified enzyme, resorufin glucoside fluorescence (screen aimed at inhibitors), 20 min
How it was run: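 Compounds titrated against 0.2 nM normal enzyme, 30 uM resorufin beta-D-glucopyranoside substrate, citrate/phosphate buffer with taurocholate and tween-20, pH 5.9. Reaction ran 20 min at room temperature; fluorescence (Ex 548/Em 600) gave AC50.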
Potency means the concentration at half of the fitted maximal effect.

UniProt P04062, sequence (P04062 whole entry, looked up): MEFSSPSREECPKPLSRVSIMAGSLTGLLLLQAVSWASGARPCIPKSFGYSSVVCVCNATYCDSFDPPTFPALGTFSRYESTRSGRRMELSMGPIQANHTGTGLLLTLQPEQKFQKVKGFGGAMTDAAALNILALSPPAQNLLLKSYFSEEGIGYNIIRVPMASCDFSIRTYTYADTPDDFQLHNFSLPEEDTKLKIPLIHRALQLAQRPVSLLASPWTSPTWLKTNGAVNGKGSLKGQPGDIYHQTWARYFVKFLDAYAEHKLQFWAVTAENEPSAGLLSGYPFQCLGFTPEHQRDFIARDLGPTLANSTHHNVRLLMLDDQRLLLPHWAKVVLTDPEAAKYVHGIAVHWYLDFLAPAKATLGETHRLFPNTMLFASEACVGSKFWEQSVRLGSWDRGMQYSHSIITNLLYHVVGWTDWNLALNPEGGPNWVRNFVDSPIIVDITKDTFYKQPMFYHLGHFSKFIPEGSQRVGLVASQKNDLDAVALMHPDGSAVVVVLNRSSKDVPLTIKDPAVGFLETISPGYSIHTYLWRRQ

Potency, inactive:
Cc1cc2nc(NC3=NCN(Cc4ccc5c(c4)OCO5)CN3)nc(C)c2cc1C > 76.9 µM
Fc1ccccc1OCCCCn1cncn1 > 76.9 µM
O=C(O)c1ccc(S(=O)(=O)Nc2ccc(F)c(Cl)c2)cc1 > 76.9 µM
O=C(NCc1ccccc1)c1cnsn1 > 76.9 µM
COc1ccc(C)cc1S(=O)(=O)N(C)CC(=O)Nc1ccc2c(c1)OCO2 > 76.9 µM
COC(=O)C(C)Sc1nc2c(c(=O)[nH]c(=O)n2C)n1CCC(C)C (stereo not given) > 76.9 µM
CN1C=C(C(F)(F)F)C=C/C1=C(\C#N)c1nnc2n1CCCCC2 > 76.9 µM
CN(C)CCN1CC(C(=O)O)CC1=O (stereo not given) > 76.9 µM
CN(C)CCNC(CC(=O)Nc1ccc(Cl)c(Cl)c1)C(=O)O (stereo not given) > 76.9 µM
COC(=O)N1CCN(c2ccc(OC)cc2)CC1 > 76.9 µM
COc1ccccc1CN1C(=O)CCC1(C)C(=O)NCc1cccnc1 (stereo not given) > 76.9 µM
CN(c1ccc(C(=O)NCc2ccco2)cc1)S(C)(=O)=O > 76.9 µM
CCOC(=O)N1CCN(Cc2ccccc2Cl)CC1 > 76.9 µM
COc1ccc(N2CCN(C(=O)CC3NC4CCCCC4NC3=O)CC2)cc1 (stereo not given) > 76.9 µM
COc1cc(C2C(C#N)=C(N)Oc3cc(N(C)C)ccc32)cc2c1OCO2 (stereo not given) > 76.9 µM
CCOC(=O)N1CCN(C(=O)CCCN2C(=O)CSc3nc(C)cc(C)c32)CC1 > 76.9 µM
O=C(CSc1nnnn1Cc1ccccc1)N1CCN(c2ccccc2)CC1 > 76.9 µM
COCCn1nnnc1C(c1cc2ccc(C)cc2[nH]c1=O)N(Cc1ccco1)Cc1cccs1 (stereo not given)
Cc1nnc(SCCn2c(N(C)Cc3ccccc3)nc3c2c(=O)n(C)c(=O)n3C)s1 > 76.9 µM
Nc1ccc(CN2CCN(c3ccc4ccccc4n3)CC2)cc1 > 76.9 µM
CC1(C)Oc2ccc(C(=O)N3CCCCC3)cc2N(CC(=O)NCc2ccccc2)C1=O > 76.9 µM
CCOC(=O)N1CCN(C(=O)c2ccc(CS(=O)(=O)c3ccccc3OC)o2)CC1 > 76.9 µM
O=C(Nc1nccs1)Oc1ccccc1 > 76.9 µM
CC(OC(=O)CCc1nc2ccccc2[nH]c1=O)C(=O)c1ccccc1 (stereo not given) > 76.9 µM
CCn1c(SCC(=O)N2CCN(c3ccc(Cl)cc3)CC2)nc2ccccc2c1=O > 76.9 µM
